Reference: PubChem BioAssay AID485364 (National Center for Advancing Translational Sciences (NCATS), 2010)
Screen size: about 360,000 compounds; about 11,000 (3.1%) were called active. The inconclusive results got no clear call from the source; some entries with a clear call stand among them for comparison. Calls follow the shape of the dose curve; as a rule, active = well fitted inhibition curve with a large enough effect; inconclusive = small, poorly fitted or top-dose-only effect; inactive = no such curve, though single readings can be large or run the other way. No potency is given beside an inconclusive call; the fits are too rough.

These compounds were tested against Schistosoma mansoni thioredoxin glutathione reductase (TGR) (UniProt Q962Y6) (assay: qHTS Assay for the Inhibitors of Schistosoma Mansoni Peroxiredoxins). Details: purified TGR, DTNB reduction, TNB absorbance 405 nm; activity change, negative = inhibition: at 114 µM (top of the series).
Summary of the method: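 Kinetic colorimetric format: TGR-catalysed, NADPH-driven DTNB reduction monitored via TNB absorbance. Enzyme dispensed at 20 nM; compound exposure 15 min at room temperature before reaction start.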
% is scaled to controls: 0 for no effect and ±100 for the full control effect; potency is read from the fitted curve at half-maximal effect; tags tell the direction and shape of the fitted curve.
Also: nearly all actives have a fitted effect of over 60% in size.

Row | Compound | Potency | activity change, negative = inhibition
1 | O=C1NN(c2ccccc2)C(=O)/C1=C\c1coc2ccc(O)cc2c1=O | active: 15.8 µM | 
2 | Cc1ccc(S(=O)(=O)NC(Cc2ccccc2)C(=O)O)cc1 (centres undefined) |  | inactive: -1.63%
3 | CC1CCN(S(=O)(=O)c2ccc3ncn(CC(=O)N(C)Cc4ccccc4)c(=O)c3c2)CC1 |  | inactive: 15.8%
4 | CC(/C=N/n1c(-c2cc(C)[nH]n2)n[nH]c1=S)=C\c1ccco1 | active: 12.6 µM | 
5 | NC(=O)C1=C[C@@H](c2ccccc2)C[C@@H](OCc2ccc(CO)cc2)O1 | active: 50.1 µM | 
6 | CC(=O)c1sc(NC(=O)c2ccc(C)c(C)c2)nc1C | inconclusive [inhibitor, single point] | 
7 | FC(F)(F)c1cc(-c2cccs2)nc(-n2cc(Cl)cn2)n1 |  | inactive: -14%
8 | Nc1ccc(Cc2ccc(N)c(O)c2)cc1O | active: 39.8 µM | 
9 | O=c1[nH]c(=S)[nH]c(O)c1CN1CCCCC1 | inconclusive [inhibitor, partial curve] | 
10 | [N-]=C=C1C(=O)NC(=O)C([n+]2ccc(-c3ccncc3)cc2)C1c1ccccc1C(F)(F)F (centres undefined) | inconclusive [inhibitor, partial curve] | 
11 | C(C#CCCCCCCCCC[n+]1ccccc1)#CCCCCCCCCC[n+]1ccccc1 | active: 39.8 µM | 
12 | Cc1ccc(C(=O)N2CCN(Cc3ccc4c(c3)OCO4)CC2)cc1C | inconclusive [inhibitor, full curve, poor fit] | 
13 | Oc1ccc(-c2nnc(-c3ccc(O)cc3)nn2)cc1 | inconclusive [inhibitor, single point] | 
14 | CC(=O)c1c(C(C)=O)c(C)n(C2CCCCC2)c1C |  | inactive: -2.12%
15 | Cn1c(C(=O)NC2CCCCC2)cc2sccc21 |  | inactive: -25%
16 | O=C(Cc1cccc2ccccc12)N/N=C/c1ccc(OC(=O)/C=C/c2ccco2)cc1 | inconclusive [inhibitor, partial curve] | 
17 | COc1ccc(-c2csc(NC(=O)C3CCCO3)n2)cc1 (centres undefined) |  | inactive: 1.55%
18 | O=C(/C=C/c1ccco1)NCC(=O)N/N=C/c1ccc(Cl)cc1 | active: 14.1 µM | 
19 | C1COC(NC(C2CC2)C2CC2)=N1 | inconclusive [inhibitor, partial curve] | 
20 | O=C(Nc1ccc(N2CCOCC2)cc1)c1cccc(-n2cnnc2)c1 |  | inactive: 2.07%
21 | O=C(COC(=O)/C=C/c1ccco1)Nc1ccccc1 | active: 56.2 µM | 
22 | O=C(N/N=C/c1cc(Br)c(Br)o1)C(O)c1ccccc1 (centres undefined) | active: 39.8 µM | 
23 | CCOC(=O)C1CCCN(C(=O)c2cc(-c3ccccc3)on2)C1 (centres undefined) |  | inactive: -0.148%
24 | O=C(/C=C/c1ccccc1)NC(=S)Nc1ccccc1 | inconclusive [inhibitor, full curve, poor fit] | 
